From PMC6664820, “Novel natural and synthetic inhibitors of solute carriers SGLT1 and SGLT2” (Pharmacology Research & Perspectives, 2019)
In all, about 1,900 compounds went through this assay and about 40 (2%) showed an effect of 50% or more. Some of the results follow.

target: human SGLT1 (hSGLT1) (human, UniProt P13866); assay: primary screen, percent of control activity; higher = less effect of the substance; design: single well; conditions: 50 µM
Method: Two days before the assay, CHO‐wild type and CHO‐hSGLT1 cells were seeded in maintenance medium at 25 000 cells/well in clear‐bottom black 96‐well cell culture plates. Before the assay, cells were washed 3 times with 150 μL/well D‐glucose free DMEM with 0.3% (w/v) BSA. Library compounds at 50 μmol/L (singlicate) prepared in D‐glucose free DMEM with 160 μmol/L 1‐NBD‐glucose and 0.3% (w/v) BSA and negative controls (triplicate) were added at 100 μL/well and placed in a humidified incubator at 37°C with 5% CO2 for 90 minutes. Next, cells were washed 3 times with DMEM with 0.3% (w/v) BSA (150 μL/well). Care was taken to remove all medium after the last wash. Finally, 1‐NBD‐glucose was extracted from the cells by adding 10 μL/well isopropanol and orbital shaking for 5 minutes at 600 rpm, followed by incubation in the dark for 30 minutes. Fluorescence was measured on a Tecan Infinite M200 Microplate Reader (Tecan, Männedorf, Switzerland) with excitation at 445 nm and emission at 525 nm. The amount of 1‐NBD‐glucose taken up by the CHO‐wild type or CHO‐hSGLT1 cells in the presence or absence of test compounds was interpolated from 1‐NBD‐glucose calibration standards. The background uptake by CHO‐wild type was subtracted from the uptake by CHO‐hSGLT1. Background corrected uptake with test compound was expressed as a percentage of corrected uptake without test compound.

Chain of human SGLT1 (hSGLT1) (P13866 whole entry, looked up): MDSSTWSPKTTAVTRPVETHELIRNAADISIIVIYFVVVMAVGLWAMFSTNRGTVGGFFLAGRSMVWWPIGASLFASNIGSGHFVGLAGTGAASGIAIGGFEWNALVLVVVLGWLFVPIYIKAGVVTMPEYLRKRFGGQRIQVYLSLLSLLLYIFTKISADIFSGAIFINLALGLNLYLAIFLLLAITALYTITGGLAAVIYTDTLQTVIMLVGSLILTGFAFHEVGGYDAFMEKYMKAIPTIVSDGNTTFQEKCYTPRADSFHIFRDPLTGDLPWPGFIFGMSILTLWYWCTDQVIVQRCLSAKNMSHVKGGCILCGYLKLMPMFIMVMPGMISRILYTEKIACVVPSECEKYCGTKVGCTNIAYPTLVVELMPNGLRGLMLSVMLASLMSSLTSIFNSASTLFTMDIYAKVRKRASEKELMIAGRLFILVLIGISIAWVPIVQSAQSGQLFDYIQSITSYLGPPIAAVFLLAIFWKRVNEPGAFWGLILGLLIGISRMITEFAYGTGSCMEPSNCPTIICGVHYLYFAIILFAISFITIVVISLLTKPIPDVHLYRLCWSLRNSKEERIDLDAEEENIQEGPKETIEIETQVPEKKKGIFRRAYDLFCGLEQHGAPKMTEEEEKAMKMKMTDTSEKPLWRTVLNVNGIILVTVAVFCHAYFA

Compared with `Cc1ccsc1/C=C/C1=NCCCN1C.O=C(O)CC(O)(CC(=O)O)C(=O)O`, `CC(=O)/C(=C\c1ccccc1)CC(=O)O` is higher in “NORMALIZED SGLT1 ACTIVITY (%)” value: 91% for the first, 142% for the second.

First: CCCC(C(=O)OCCN(CC)CC)(c1ccccc1)c1ccccc1.Cl
Second: O=C(OCc1ccccc1)c1ccccc1
The “NORMALIZED SGLT1 ACTIVITY (%)” value of the first is lower: 85% for the first, 92% for the second.

Going from `CNCCCN1c2ccccc2CCc2ccccc21.Cl` to `CC(NCCC(c1ccccc1)c1ccccc1)c1ccccc1.Cl` (stereo not shown), the “NORMALIZED SGLT1 ACTIVITY (%)” value falls from 135% to 48%.

Compared with `COC(=O)[C@]1(C)CCC[C@]2(C)c3ccc(C(C)C)cc3C(=O)CC12` (stereo partly shown), `COC(=O)C[C@H]1C(C)(C)[C@@H](O)[C@@H]2CC3=C4C=C(OC)O[C@@H](c5ccoc5)[C@]4(C)CCC3[C@@]1(C)C2=O` (stereo partly shown) is lower in “NORMALIZED SGLT1 ACTIVITY (%)” value: 89% for the first, 82% for the second.

First: CCCC(=O)Nc1ccc(OCC(O)CNC(C)C)c(C(C)=O)c1.Cl (stereo not shown)
Second: COc1cc(O)ccc1C(C)=O
The “NORMALIZED SGLT1 ACTIVITY (%)” value of the first is higher: 117% for the first, 92% for the second.

Going from `CC(=O)O[C@H]1CC[C@@]2(C)C(C[C@H](OC(C)=O)[C@@]3(C)C4=CC(=O)OC(c5ccoc5)[C@]4(C)CCC23)C1(C)C` (stereo partly shown) to `COC(=O)[C@@H]1OC(=O)C2OC23[C@@]1(C)CCC1[C@]2(C)C(C[C@@H](O)[C@]13C)C(C)(C)[C@H](OC(C)=O)C[C@@H]2OC(C)=O` (stereo partly shown), the “NORMALIZED SGLT1 ACTIVITY (%)” value rises from 111% to 121%.

First: C=C1C/C=C(\C)CC[C@@H]2[C@@H]1CC2(C)C
Second: C[C@H]1CC2C3CCC4=CC(=O)C=C[C@]4(C)[C@@]3(F)[C@@H](O)C[C@]2(C)[C@@]1(O)C(=O)CO (stereo partly shown)
The “NORMALIZED SGLT1 ACTIVITY (%)” value of the first is lower: 120% for the first, 241% for the second.

Going from `Cn1c(=O)c2c(ncn2CCO)n(C)c1=O` to `CCC1(CC)C(=O)C=CNC1=O`, the “NORMALIZED SGLT1 ACTIVITY (%)” value falls from 122% to 99%.

Going from `COc1c2c(c(CC=C(C)C)c3oc(=O)c(-c4ccc(O)cc4)c(O)c13)OC(C)(C)C=C2` to `COc1ccc(/C=C/C(=O)Nc2ccccc2C(=O)O)cc1OC`, the “NORMALIZED SGLT1 ACTIVITY (%)” value falls from 279% to 167%.

Going from `COc1ccc2c(c1)CCC1C2CC[C@@]2(C)C1CC[C@@H]2O` (stereo partly shown) to `CC(CCC(=O)O)[C@H]1CCC2C3C[C@H](O)[C@@H]4C[C@H](O)CC[C@]4(C)C3CC[C@@]21C` (stereo partly shown), the “NORMALIZED SGLT1 ACTIVITY (%)” value rises from 172% to 218%.

First: CCCCC(CC)CN1CN(CC(CC)CCCC)CC(C)(N)C1 (stereo not shown)
Second: CCC(=O)OC1[C@@H]2CC3=C4CC(=O)O[C@@H](c5ccoc5)[C@]4(C)CCC3[C@@](C)(C2=O)[C@@H](CC(=O)OC)C1(C)C (stereo partly shown)
The “NORMALIZED SGLT1 ACTIVITY (%)” value of the first is lower: 67% for the first, 138% for the second.

Going from `CC(C)c1c(O)c(-c2cc3c(c(C(C)C)c2O)CCC2C(C)(C)CCC[C@]32C)cc2c1CCC1C(C)(C)CCC[C@]21C` (stereo partly shown) to `CC(=O)O[C@H]1CC[C@@]2(C)C(CC[C@]3(C)C2CC=C2C4CC(C)(C)CC[C@]4(C)CC[C@]23C)C1(C)C` (stereo partly shown), the “NORMALIZED SGLT1 ACTIVITY (%)” value falls from 91% to 88%.

Compared with `O=C1C(Cl)=C(Cl)C(=O)C(Cl)=C1Cl`, `Cc1ccccc1N1C(=O)c2cc(S(N)(=O)=O)c(Cl)cc2NC1C` (stereo not shown) is lower in “NORMALIZED SGLT1 ACTIVITY (%)” value: 108% for the first, 81% for the second.

First: CN1C2CCC1CC(OC(c1ccccc1)c1ccccc1N)C2 (stereo not shown)
Second: CC(C)[N+]1(C)C2CC[C@@H]1C[C@@H](OC(=O)C(CO)c1ccccc1)C2.[Br-] (stereo partly shown)
The “NORMALIZED SGLT1 ACTIVITY (%)” value of the first is lower: 61% for the first, 83% for the second.

First: Cl[C@H]1[C@H](Cl)[C@@H](Cl)[C@@H](Cl)[C@H](Cl)[C@H]1Cl
Second: C[C@H](CCC(=O)O)[C@H]1CCC2C3C(CC[C@@]21C)[C@@]1(C)CC[C@@H](O)C[C@H]1C[C@@H]3O (stereo partly shown)
The “NORMALIZED SGLT1 ACTIVITY (%)” value of the first is lower: 115% for the first, 173% for the second.

Compared with `COc1cc(C(=O)NCc2ccc(OCCN(C)C)cc2)cc(OC)c1OC.Cl`, `COc1cc(Cc2cnc(N)nc2N)cc(OC)c1OC` is lower in “NORMALIZED SGLT1 ACTIVITY (%)” value: 136% for the first, 121% for the second.

Compared with `O=C(O)C1CC([C@@H]2CCCCN2)CN2CCCCC12` (stereo partly shown), `CC[C@@H](C(=O)[C@@H](C)[C@@H](O)[C@H](C)[C@@H]1O[C@@H]([C@@H](CC)C(=O)[O-])CC[C@@H]1C)[C@H]1OC2(C=C[C@@H](O)[C@]3(CC[C@@](C)([C@H]4CC[C@](O)(CC)[C@H](C)O4)O3)O2)[C@H](C)C[C@@H]1C.[Na+]` (stereo partly shown) is higher in “NORMALIZED SGLT1 ACTIVITY (%)” value: 113% for the first, 301% for the second.

First: COc1ccccc1OCCNCC(O)COc1cccc2[nH]c3ccccc3c12 (stereo not shown)
Second: O=C(O)c1c2ccccc2cc2ccccc12
The “NORMALIZED SGLT1 ACTIVITY (%)” value of the first is higher: 124% for the first, 107% for the second.

First: C[N+](C)(C)CC(O)CC(=O)O.[Cl-] (stereo not shown)
Second: CC(=O)CC(=O)CCC(=O)O
The “NORMALIZED SGLT1 ACTIVITY (%)” value of the first is higher: 111% for the first, 81% for the second.

Going from `O=c1oc2ccccc2cc1O` to `O=S(=O)(O)O.Oc1cccc2cccnc12`, the “NORMALIZED SGLT1 ACTIVITY (%)” value falls from 136% to 127%.

First: C=C[C@@H](C1=CC(=O)C(OC)=C(OC)C1=O)c1ccccc1
Second: COC1=CC(=O)C(C(=O)c2ccccc2)=CC1=O
The “NORMALIZED SGLT1 ACTIVITY (%)” value of the first is lower: 126% for the first, 256% for the second.

First: CNC(=O)N(C)c1nnc(C(C)(C)C)s1
Second: CCc1cccc(C)c1N(C(=O)CCl)C(C)COC (stereo not shown)
The “NORMALIZED SGLT1 ACTIVITY (%)” value of the first is higher: 103% for the first, 92% for the second.

First: C=C[C@](C)(O)CCC=C(C)C
Second: CCOC(=O)OC(C)OC(=O)C1N2C(=O)C(NC(=O)[C@H](N)c3ccccc3)C2SC1(C)C.Cl (stereo partly shown)
The “NORMALIZED SGLT1 ACTIVITY (%)” value of the first is lower: 83% for the first, 124% for the second.

Going from `O=C(O)c1cc([N+](=O)[O-])ccc1NCCCc1ccccc1` to `C[C@H](N)C(=O)NC(Cc1ccccc1)C(=O)O` (mixture of isomers), the “NORMALIZED SGLT1 ACTIVITY (%)” value falls from 373% to 114%.

Going from `COC(=O)C(C)c1ccc(C(=O)c2cccs2)cc1` (stereo not shown) to `CCCCOC(=O)c1ccc(N)cc1`, the “NORMALIZED SGLT1 ACTIVITY (%)” value rises from 93% to 129%.

First: Cl.NNCc1ccccc1
Second: CC1(C)S[C@@H]2[C@H](NC(=O)[C@H](N)c3ccccc3)C(=O)N2[C@H]1C(=O)[O-].[Na+]
The “NORMALIZED SGLT1 ACTIVITY (%)” value of the first is higher: 115% for the first, 98% for the second.

Compared with `O=C(O)c1cc2ccccc2c(Cc2c(O)c(C(=O)O)cc3ccccc23)c1O.OCCOCCN1CCN(C(c2ccccc2)c2ccc(Cl)cc2)CC1`, `CCCCC(=O)N(Cc1ccc(-c2ccccc2-c2nn[nH]n2)cc1)[C@H](C(=O)O)C(C)C` is lower in “NORMALIZED SGLT1 ACTIVITY (%)” value: 115% for the first, 101% for the second.

First: CC1=CC(=O)C2=C(C)CC[C@@H]3[C@H](OC(=O)[C@H]3C)[C@@H]12
Second: Cc1cc2cc3c(C)cc(=O)oc3c(C)c2o1
The “NORMALIZED SGLT1 ACTIVITY (%)” value of the first is lower: 109% for the first, 203% for the second.

First: NS(=O)(=O)c1cc(C(=O)O)c(NCc2ccco2)cc1Cl
Second: NS(=O)(=O)c1cc2c(cc1Cl)N=CNS2(=O)=O
The “NORMALIZED SGLT1 ACTIVITY (%)” value of the first is lower: 86% for the first, 102% for the second.

Compared with `O=C1C=C2C(=CCOC2O)O1` (stereo not shown), `COc1ccc(/C=C/c2cc(O)cc(O)c2)cc1` is higher in “NORMALIZED SGLT1 ACTIVITY (%)” value: 148% for the first, 198% for the second.

`CNC1(C)C2CCC(C2)C1(C)C.Cl` (stereo not shown) was tested, and the “NORMALIZED SGLT1 ACTIVITY (%)” value was 97%.
